# Results published in ChEMBL document CHEMBL4888484, “Replenishing the malaria drug discovery pipeline: Screening and hit evaluation of the MMV Hit Generation Library 1 (HGL1) against asexual blood stage Plasmodium falciparum ,using a nano luciferase reporter read-out” (2022).
# Screen size: about 150,000 compounds; about 540 (0.36%) showed an effect of 50% or more. This is one part of the list.
# Test system: Plasmodium falciparum
# Test: Primary screen in NF54 nanoGlo assay, in single point, at 2uM, 72h; a lower Z score goes with more inhibition
# Format: functional, Erythrocyte
# Conditions: timepoint 72 hour
Structure (SMILES),% Inhibition [%],Z score
O=C(N[C@H]1CCN(Cc2nc3c(s2)CCCC3)C[C@@H]1O)c1cnccn1,-9,1.77
O=C(c1ccccc1Oc1ccccc1)N1CCN(S(=O)(=O)c2ccccc2)CC1,-3,0.55
Cc1[nH]cnc1CNC(=O)c1ccc2ccccc2n1,-14,1.95
CO[C@H]1C[C@@H](O)C12CCN(C(=O)c1cccc(CO)n1)CC2,-9,1.57
Cc1nc(CS(=O)(=O)CCCC(C)C)no1,-6,1.09
CCOC(=O)CN(C(=O)c1cncc(F)c1)C(C)(C)C,-15,1.59
N#Cc1cccnc1NCCOC(=O)c1cccc(-n2cnnn2)c1,-11,1.46
O=C(Cn1nnc2ccccc21)N1CCc2ccccc21,5,-0.84
Fc1cccc(OCCN2CCCN3CCC[C@H]3C2)c1,-9,1.15
COCCN(Cc1ccoc1)C(=O)NC1CCCC1,-2,0.37
CC(C)N(C(=O)[C@H](C)c1ccnn1C)C1CCCCC1,1,-0.16
Cc1cc(C)cc(CN2C(=O)C[C@H](Cc3cnn(C)c3)C2=O)c1,-9,0.96
Cc1cc(C(=O)NC2CCN(C(=O)c3cc(F)cnc3O)CC2)c(C)o1,-10,1.33
CCOC1CCN(C(=O)CCCN2CCCCC2=O)CC1,0,-0.03
Cn1ccc(C(=O)N2CCc3[nH]c(C4CCCCC4)nc3C2)cc1=O,13,-1.52
CCC(C)CN1C(=O)C(C)NC12CCN(C(=O)c1ccc(OC)cc1)CC2 (stereo not given),-15,2.2
COc1cccc(NC(=O)Nc2cc(C)ccc2N2CCCN(Cc3ccc(Cl)c(Cl)c3)C2=O)c1,0,0.05
COc1cc(Cc2nc(-c3ccc4nnn(C(C)C)c4c3)no2)cc(OC)c1,-18,1.9
O=C(N[C@H]1C[C@H]2C(=O)N3CCC[C@@H]3C(=O)N2C1)c1ccc(Br)cc1,-18,2.05
O=C(NCCCn1cncn1)c1cnc(Cc2c(Cl)cccc2Cl)nc1O,-4,0.51
Cc1cc(F)cc(C(=O)N(CC(F)(F)F)[C@@H](C)C(C)C)c1,-3,0.24
Cc1noc(C(C)(C)NCc2ccc(OCCN3CCOCC3)c(Cl)c2)n1,-10,1.84

Structure (SMILES),% Inhibition [%],Z score
NC(=O)C1CCCCC1NCc1ccsc1 (stereo not given),1,-0.19
Cc1ccccc1OCCNC(=O)N1CCC[C@H](N(C)C)CC1,4,-0.57
O=C(O)c1cc(C2CC2)n2nc(-c3ccccc3)cc2n1,-4,0.52
Cc1cccc(C)c1OCC(O)CN1CCCCC1Cn1cncn1 (stereo not given),1,-0.21
Cc1ccc(CNC(=O)c2cc3n(n2)C[C@@](C)(C(=O)NC2CCCCCC2)N(C)C3=O)cc1,10,-1.14
Cc1ccc(C)c(C2CN(CCn3c(C)csc3=O)C(C)CO2)c1 (stereo not given),-4,0.55
O=C(NCCCN1CCOCC1)c1cc2n(n1)CCN(Cc1ccccc1Cl)C2=O,-20,3.65
COCCCn1cnnc1CNS(=O)(=O)c1c(C)cc(C)c2nonc12,-4,0.48
O=C(CCC1CCN(C/C=C/c2ccc(F)cc2)CC1)N1CCOCC1,-27,2.39
COc1ccc(Oc2cnn(-c3ccc(C)cc3)c(=O)c2Nc2cccc(C(=O)N(C)Cc3ccccc3)c2)cc1,2,-0.2
Cc1nc(C)c(C(=O)OCCN2CCCCC2)s1,-4,0.49
COc1cccc(CNC(=O)[C@@H]2C[C@@H](O)CN2C2CCN(C(=O)c3ccc(C)c(F)c3)CC2)c1,-3,0.43
O[C@H]1CCCN(c2ncccc2CNc2ncnc3c2CCC3)C1,-26,3.31
CC(C)(C)n1nccc1NC(=O)c1c(Cl)cccc1OCC1CC1,6,-1.01
Cc1nc2n(n1)CC(NC(C)C1CCCN1C(=O)OC(C)(C)C)CC2 (stereo not given),-10,1.21
O=C1CCCCC1C1CCCCCN1C(=O)c1cccc(Oc2nccs2)c1 (stereo not given),0,-0.03
Cc1cccc(CNC(=O)c2[nH]c3ccc(F)cc3c2NC(=O)c2ccccc2)c1,-1,0.25
COc1ncc(NC(=O)c2cccnc2)c(N(C)C)n1,3,-0.41
CC(=O)NC1(c2noc(CCC(=O)N3CCNC[C@@H]3C)n2)CCCCCC1,12,-1.6
Cc1nc(CS(=O)(=O)CCCO)sc1C,-8,1.5
O=C(NCCC1CCCCO1)NC1C2Cc3ccccc3C21 (stereo not given),-1,0.13
O=C(c1cc2n(n1)CCN(C(=O)[C@@H]1COCCO1)C2)N1CCCC1,-3,0.33

Structure (SMILES),% Inhibition [%],Z score
CC[C@H](Oc1ccccc1C)c1nnc(C2CCOCC2)o1,-1,0.16
C=C(C)COc1ccccc1CN[C@@H](C)c1nncn1C,-3,0.55
CCS(=O)(=O)c1ccccc1N(C)CCN1CCOCC1,-14,1.86
COc1ccc(Cl)cc1NC(=O)CN1CCCN(c2ccc(C(F)(F)F)cn2)CC1,-8,1.03
COc1ccc(C(=O)N2CCC3(CC2)C[C@@H](N(C)Cc2ccccc2)CCO3)cn1,8,-1.27
CC(=O)NCc1csc(C2CCN(C(=O)c3cccc(Br)c3)CC2)n1,0,0.04
CC(C)[C@H](NC(=O)c1sccc1Cl)C1(CO)CCC1,-3,0.46
CCS(=O)(=O)NCCNC(=O)c1nnn(-c2cccc3ncccc23)c1C,-4,0.44
O=C(Cc1ccccc1)NCCOc1ccc2c(c1)OCO2,-4,0.64
C[C@]1(c2ccccc2)CCC(=O)N(CC2(CO)CCC2)C1,-2,0.42
Cc1cccn2c(CN3C[C@H](F)C[C@H]3C(N)=O)cnc12,7,-1.05
Cc1ccccc1C1CC1c1nc(-c2cnccn2)no1 (stereo not given),-6,0.64
CCc1nsc(N[C@@H](C)c2n[nH]c(=O)n2C)n1,-12,1.99
CN(C)C(=O)NCC(=O)N1CCC([C@@H](O)CCc2ccccc2)CC1,3,-0.49
C[C@]1(C(=O)Nc2cccc3c2CNC3=O)CCNC(=O)C1,-1,0.07
NS(=O)(=O)c1ccc(CNC(=O)c2ccc(S(=O)(=O)N3CCCCCC3)cc2)cc1,-17,2.76
Cn1nnc2c(N3CCC4(CC3)OCCO4)ncnc21,-4,0.64
O=C(c1ccco1)N1CCC(F)(C(=O)N2CCOCC2)CC1,12,-1.5
CC(C)c1cc(-c2nc(-c3cn4ccccc4n3)no2)no1,-16,1.6
CC(C)N1CCCN(C(=O)C2CC3CCC2C3)CC1 (stereo not given),-12,1.65
Nc1ccc(C(=O)N[C@H]2CC[C@@H]3CCC[C@@H]32)cn1,-6,1.12
O=C(COc1ccccc1)Nc1ccc(N2CCCN(Cc3ccccc3C(F)(F)F)CC2)nc1,-19,1.83

Structure (SMILES),% Inhibition [%],Z score
COc1ccc(CNC(=O)N2CCC(Cc3nncn3CC3CC3)CC2)cc1,-10,1.19
COCCN(CC(=O)Nc1cccc2[nH]ccc12)C(=O)OC(C)(C)C,-2,0.32
Cn1nccc1-c1nc(-c2ccc(N3CCCC3)cn2)no1,-7,1.43
COc1ccc(CC(=O)N2CCC(n3nc(C(C)C)cc3C(C)C)CC2)cc1OC,-18,2.02
O=C(N[C@@H](c1ccccc1)c1ccc2c3c(cccc13)CC2)C(c1ccccc1)c1ccccc1,6,-0.73
Cc1ccc(F)c(NC(=O)C2(C)CNC2)c1,-11,1.09
c1ccc(-c2nc(CN3CCOC4(CCCC4)C3)co2)cc1,-8,1.59
O=C1CCC(=O)N1CCOc1cc(F)cc(Br)c1,-5,0.73
Fc1ccc(OCc2nc(-c3nnn4c3CO[C@H](c3ccccc3Cl)C4)no2)cc1,4,-0.82
Cc1cc(S(N)(=O)=O)c(C(C)C)cc1Br,4,-0.62
CC(C)CNc1nc(C(=O)NCCc2ccccn2)cs1,-16,1.92
CC(C)(C)OC(=O)N1CCC(c2c(C(=O)N3CCN(c4ccc(Cl)cc4)CC3)cnn2-c2ccccc2)CC1,10,-1.8
Cc1ccc(OC(C)(C)C(=O)N[C@H]2CCOC[C@@H]2OCCN(C)C)cc1,-22,1.95
Cc1nn(C(C)C)c2nc(-c3cncn3C)[nH]c12,-12,1.58
CCOC(=O)N1CCC(N[C@@H](CC)c2nc(C)c[nH]2)CC1,13,-1.68
Cn1ccc(-c2cc(C(=O)N3CCC[C@]4(CC=CCC4)C3)no2)n1,-24,3.15
CCCc1noc([C@H](C)OC(=O)c2cc[nH]n2)n1,32,-0.43
C[C@@H](Cn1cccn1)C(=O)N1CCN(c2cnccn2)CC1,-3,0.49
Cc1ccc(-n2ncc3c(C(C)C)n[nH]c(=O)c32)cc1,-15,1.79
